According to the supplement of paper PMC8728848:
The list shows a part of the results.

Assays:
Assay in all cases: glycan array binding signal (z-score within array); higher = stronger binding
Settings in all cases: glycan notation: IUPAC condensed, linker removed
[1] = target: Fuc(a1-2)[GalNAc(a1-3)]Gal(b1-4)GlcNAc(b1-3)Gal(b1-4)GlcNAc
In short: (§1)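 Glycan array binding is given as a within-array Z-score, which can be read as non-binding when negative. The arrays, 3228 of them, came from the Consortium for Functional Glycomics database and were retained only where the protein sequence was available. Z-scores were averaged across arrays of the same protein sequence at different concentrations or buffers and across linkers.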

[2] = target: Fuc(a1-2)[GalNAc(a1-3)]Gal(b1-4)GlcNAc(b1-3)Gal(b1-4)GlcNAc(b1-3)Gal(b1-4)GlcNAc
In short: as §1

[3] = target: Fuc(a1-2)[GalNAc(a1-3)]Gal(b1-4)GlcNAc(b1-3)GalNAc
In short: as §1

[4] = target: Fuc(a1-2)[GalNAc(a1-3)]Gal(b1-4)GlcNAc(b1-3)[Fuc(a1-2)[GalNAc(a1-3)]Gal(b1-4)GlcNAc(b1-6)]GalNAc
In short: as §1

[5] = target: Fuc(a1-2)[GalNAc(a1-3)]Gal(b1-4)GlcNAc(b1-6)GalNAc
In short: as §1

[6] = target: Fuc(a1-2)[GalNAc(a1-3)]Gal(b1-4)[Fuc(a1-3)]GlcNAc
In short: as §1

[7] = target: Fuc(a1-2)[GalNAc(a1-3)]Gal(b1-4)[Fuc(a1-3)]GlcNAc(b1-3)GalNAc
In short: as §1

[8] = target: Fuc(a1-2)[GalNAc(a1-4)]Gal(b1-4)GlcNAc
In short: as §1

[9] = target: Fuc(a1-2)[GalNAc(b1-3)]Gal
In short: as §1

Fuc(a1-3)GlcNAc = target: Fuc(a1-3)GlcNAc
In short: as §1

[10] = target: Fuc(a1-3)[Gal(b1-4)]Glc6S
In short: as §1

[11] = target: Fuc(a1-3)[Gal(b1-4)]GlcNAc
In short: as §1

[12] = target: Fuc(a1-3)[Gal(b1-4)]GlcNAc(b1-2)Man
In short: as §1

[13] = target: Fuc(a1-3)[Gal(b1-4)]GlcNAc(b1-2)Man(a1-3)[Fuc(a1-3)[Gal(b1-4)]GlcNAc(b1-2)Man(a1-6)]Man(b1-4)GlcNAc(b1-4)GlcNAc
In short: as §1

[14] = target: Fuc(a1-3)[Gal(b1-4)]GlcNAc(b1-2)Man(a1-3)[Fuc(a1-3)[Gal(b1-4)]GlcNAc(b1-2)Man(a1-6)]Man(b1-4)GlcNAc(b1-4)[Fuc(a1-6)]GlcNAc
In short: as §1

[15] = target: Fuc(a1-3)[Gal(b1-4)]GlcNAc(b1-3)Gal(b1-3)[Fuc(a1-4)]GlcNAc
In short: as §1

[16] = target: Fuc(a1-3)[Gal(b1-4)]GlcNAc(b1-3)Gal(b1-4)[Fuc(a1-3)]GlcNAc
In short: as §1

[17] = target: Fuc(a1-3)[Gal(b1-4)]GlcNAc(b1-3)Gal(b1-4)[Fuc(a1-3)]GlcNAc(b1-3)Gal(b1-4)[Fuc(a1-3)]GlcNAc
In short: as §1

[18] = target: Fuc(a1-3)[Gal(b1-4)]GlcNAc(b1-3)GalNAc
In short: as §1

[19] = target: Fuc(a1-3)[Gal(b1-4)]GlcNAc(b1-4)Gal(b1-4)[Fuc(a1-3)]GlcNAc
In short: as §1

[20] = target: Fuc(a1-3)[Gal(b1-4)]GlcNAc(b1-4)Gal(b1-4)[Fuc(a1-3)]GlcNAc(b1-4)Gal(b1-4)[Fuc(a1-3)]GlcNAc
In short: as §1

[21] = target: Fuc(a1-3)[Gal(b1-4)]GlcNAc(b1-6)GalNAc
In short: as §1

[22] = target: Fuc(a1-3)[Gal(b1-4)]GlcNAc(b1-6)[Gal(b1-3)GlcNAc(b1-3)]Gal(b1-4)Glc
In short: as §1

B1: rMpL (Macrolepiota procera) (protein)
chain: MSTQVSSGRTYKITNVIAGTVIDLSGEDNKSIIGYPYHSGKNQQWTFNWTGKAWTLRSASSGSYLGIEGTPAGGTRLVAVNDPFEWHIWRDEANENAFRIFVPFTNYNLDLSGYGDTTPGTPVQLWWTWEGLHQTWTIDRP
[1]
  glycan array binding signal (z-score): -0.358
[2]
  glycan array binding signal (z-score): 0.045
[3]
  glycan array binding signal (z-score): -0.287
[4]
  glycan array binding signal (z-score): -0.26
[5]
  glycan array binding signal (z-score): -0.414
[6]
  glycan array binding signal (z-score): -0.161
[7]
  glycan array binding signal (z-score): -0.128
[8]
  glycan array binding signal (z-score): -0.866
[9]
  glycan array binding signal (z-score): -0.142
Fuc(a1-3)GlcNAc
  glycan array binding signal (z-score): -0.378
[10]
  glycan array binding signal (z-score): -0.19
[11]
  glycan array binding signal (z-score): -0.362
[12]
  glycan array binding signal (z-score): -0.35
[13]
  glycan array binding signal (z-score): -0.285
[14]
  glycan array binding signal (z-score): -0.118
[15]
  glycan array binding signal (z-score): -0.253
[16]
  glycan array binding signal (z-score): -0.251
[17]
  glycan array binding signal (z-score): -0.37
[18]
  glycan array binding signal (z-score): -0.234
[19]
  glycan array binding signal (z-score): -0.279
[20]
  glycan array binding signal (z-score): -0.245
[21]
  glycan array binding signal (z-score): -0.065
[22]
  glycan array binding signal (z-score): 0.552
